The whole screen tested about 200,000 compounds, of which about 4,500 (2.2%) were called active. This list was built around the results that the source calls inconclusive (neither active nor inactive); the mix of calls is not that of the screen. Calls follow the shape of the dose curve; as a rule, active = well fitted inhibition curve with a large enough effect; inconclusive = small, poorly fitted or top-dose-only effect, or effect the other way; inactive = flat fitted curve, though single readings scatter. A potency beside an inconclusive call is a rough fit, not a confirmed value. Some structures have more than one record in an assay (separate samples or runs), and their calls can disagree.
Each compound was assayed against Cruzipain (Trypanosoma cruzi) (UniProt P25779) (assay: qHTS Assay for Promiscuous and Specific Inhibitors of Cruzain (without detergent)). Conditions: purified cruzain, Z-FR-AMC fluorescence, no detergent.
Chain of UniProt P25779 (P25779 whole entry, looked up): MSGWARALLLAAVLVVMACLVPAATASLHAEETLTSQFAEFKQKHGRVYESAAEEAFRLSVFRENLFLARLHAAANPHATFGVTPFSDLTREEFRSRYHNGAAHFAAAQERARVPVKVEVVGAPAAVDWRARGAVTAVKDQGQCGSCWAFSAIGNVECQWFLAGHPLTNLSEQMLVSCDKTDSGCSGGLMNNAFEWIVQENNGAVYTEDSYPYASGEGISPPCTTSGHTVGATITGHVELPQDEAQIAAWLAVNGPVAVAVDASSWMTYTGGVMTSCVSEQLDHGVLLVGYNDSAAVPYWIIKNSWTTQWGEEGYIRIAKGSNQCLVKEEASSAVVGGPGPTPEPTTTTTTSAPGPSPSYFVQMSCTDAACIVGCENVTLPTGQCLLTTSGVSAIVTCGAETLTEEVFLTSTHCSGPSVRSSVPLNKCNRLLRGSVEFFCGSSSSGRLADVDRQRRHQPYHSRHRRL
Method in brief: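 Detergent-free condition (0.00005% Triton X-100) in acetate buffer pH 5.5 with DTT. 1.5 nM enzyme and compound were pre-mixed 15 min, then 2 uM Z-FR-AMC substrate added; reaction progress from fluorescence change between first and third reads (60 s).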
`O=C(COc1ccc(-c2ccccc2)cc1)N/N=C/c1cc(O)ccc1Br` was tested, and the Potency was inconclusive: 39.8 µM [inhibitor, single point].
With `O=C(CCSc1nc(-c2ccco2)cc(C(F)(F)F)n1)NCc1ccccn1` the max response, negative = inhibition was inactive: 22.7%.
For `CC[n+]1c(/C=C/C=C/N(C(C)=O)c2ccccc2)sc2ccccc21`, the Potency was active: 20 µM.
With `O=C1C(SCCO)=C(SCCO)C(=O)c2ccccc21` the Potency was active: 25.1 µM.
With `Cc1ccc(CSc2nnc(SCC(=O)N/N=C/c3c(C)nn(-c4ccccc4)c3C)s2)cc1` the Potency was inconclusive: 31.6 µM [inhibitor, single point].
For `Cc1cc(-n2c(/C=C/c3ccc(Br)s3)nc3ccccc3c2=O)ccc1Br`, the Potency was inconclusive: 39.8 µM [inhibitor, single point].
With `CCOc1ccc(NC(=O)C2(c3cccs3)CCOCC2)cc1` the max response, negative = inhibition was inactive: 6.45%.
With `COc1ccc2[nH]c(=O)c(COC(=O)c3cccs3)cc2c1` the max response, negative = inhibition was inactive: -5.29%.
For `O=C1CC(C(=O)Nc2ccc(F)cc2)S/C(=N\N=C\c2ccco2)N1` (centres undefined), the Potency was inconclusive: 39.8 µM [inhibitor, single point].
For `Cc1cc(Cl)c(OCCCN(C)C)c(Br)c1`, the Potency was active: 5.01 µM.
For `COc1ccc(C(C(=O)NCc2ccccc2)N(C(=O)Cn2nnc3ccccc32)c2cccc(OC)c2)cc1` (centres undefined), the max response, negative = inhibition was inactive: -15.1%.
In the case of `CCOC(=O)N1CCN(C(=O)c2cc(-c3ccc(OCC)cc3)nc3ccccc23)CC1`, the Potency is reported as inconclusive: 31.6 µM [activator, partial curve].
`COC(=O)c1cn(Cc2c(C)cc(C)cc2C)nn1` was tested, and the Potency was inconclusive: 25.1 µM [inhibitor, single point].
For `CC(C)c1ccc(SCc2noc(C(=O)NCC3CCCO3)c2C(=O)O)cc1` (centres undefined), the Potency was inconclusive: 25.1 µM [activator, single point].
`CCn1c(=O)c2cc(C(=O)Nc3cc(OC)c(OC)c(OC)c3)sc2c2ccccc21` was tested, and the Potency was inconclusive: 31.6 µM [activator, single point].
For `Cc1cccc(C2C3=C(Nc4[nH]n(-c5ccccc5)c(=O)c42)c2ccccc2C3=O)c1` (centres undefined), the Potency was inconclusive: 31.6 µM [inhibitor, single point].
For `Cc1cccc(-c2noc(-c3ccccc3NC(=O)C3CC(=O)N(c4ccccc4C)C3)n2)c1` (centres undefined), the max response, negative = inhibition was inactive: 6.85%.
`CCN1CCN(Cc2nc3c(c(=O)n(C)c(=O)n3C)n2C(C)C(C)=O)CC1` (centres undefined) was tested, and the max response, negative = inhibition was inactive: -12.7%.
In the case of `COc1ccc(NS(=O)(=O)c2ccc(NC(=S)NC(=O)/C=C/c3ccccc3)cc2)nn1`, the Potency is reported as active: 31.6 µM.
For `COc1ccc(C(O)P(=O)(OCC(C)C)OCC(C)C)c(OC)c1` (centres undefined), the Potency was inconclusive: 20 µM [activator, partial curve].
With `CCCc1cc(=O)n2[nH]c(NC(=O)c3ccc(C(C)(C)C)cc3)nc2n1` the max response, negative = inhibition was inactive: -14.1%.
For `C=CCSc1n[nH]c2nc3c(c(=O)n12)C1(CCCC1)Cc1ccccc1-3`, the Potency was active: 10 µM.
With `COc1ccc(C(=O)Nc2nc3nc(C)c(Cc4ccccc4)c(=O)n3[nH]2)cc1OC` the max response, negative = inhibition was inactive: 15.6%.
With `O=Nc1ccc(NOC(=O)c2ccccc2)cc1` the Potency was inconclusive: 31.6 µM [inhibitor, single point].
With `CC(=O)c1cccc(NC(=O)c2nc3ccccc3n(C)c2=O)c1` the max response, negative = inhibition was inactive: -3.08%.
In the case of `O=C(Nc1cccc(S(=O)(=O)N2CCCCC2)c1)c1ccc2ccccc2n1`, the Potency is reported as inconclusive: 31.6 µM [inhibitor, single point].
With `CC(C)c1ccc(S(=O)(=O)c2nnn3c2nc(N2CCN(C)CC2)c2sccc23)cc1` the max response, negative = inhibition was inactive: 3.23%.
In the case of `CN(C)C(=O)c1ccc(-c2ccc3ncnc(N(C)C)c3c2)cc1`, the max response, negative = inhibition is reported as inactive: -3.96%.
`COc1cc(C(=O)Nc2cccc(-c3nc4cc(C)cc(C)c4o3)c2)cc(OC)c1OC` was tested, and the Potency was inconclusive: 20 µM [activator, single point].
In the case of `COc1cccc2cc(-c3nc(Nc4cccc(C)c4)sc3C)c(=O)oc12`, the max response, negative = inhibition is reported as inactive: -3.21%.
`C=CC1=C(C)C2=NC1=CC1=NC(=CC3=NC(=CC4=NC(=C2)C(C)=C4CCC(=O)O)C(CCC(=O)O)=C3C)C(C=C)=C1C.[Zn]` was tested, and the Potency was inconclusive: 20 µM [activator, single point].
With `COc1cccc(CN2C(=O)c3ccccc3Sc3ccc(C(=O)N(C)Cc4ccccc4)cc32)c1` the max response, negative = inhibition was inactive: -23.3%.
For `O=C(/C=C/c1ccc(F)cc1)Nc1nc2ccccc2[nH]1`, the Potency was active: 10 µM.
`CN(C)c1ccc(/C=C2/C(=O)N(c3ccc([N+](=O)[O-])cc3)N=C2N2CCOCC2)cc1` was tested, and the Potency was inconclusive: 20 µM [inhibitor, single point].
With `Cc1ccc(S(=O)(=O)N2CCN(C(=O)c3cc4c(C)nn(-c5ccccc5)c4s3)CC2)cc1` the Potency was inconclusive: 31.6 µM [inhibitor, single point].
In the case of `CCn1c(-c2cc(Br)cc(OC)c2O)nc2cc(S(=O)(=O)N(C)C)ccc21`, the Potency is reported as active: 20 µM.
With `O=C(NCc1ccc2c(c1)CCN2C(=O)c1ccccc1)c1cc2ccccc2[nH]1` the Potency was inconclusive: 39.8 µM [inhibitor, single point].
`CCN1CCN(CCCNC(=O)c2cc3c(s2)-c2ccccc2OC3)CC1` was tested, and the Potency was inconclusive: 39.8 µM [inhibitor, single point].
In the case of `COc1cc(OC)cc(C(=O)Nc2cc(-c3nc4cc(Cl)ccc4o3)ccc2Cl)c1`, the max response, negative = inhibition is reported as inactive: 1.85%.
In the case of `O=C1CC(c2ccccc2)Cc2nc(N3CCc4ccccc4C3)ncc21` (centres undefined), the Potency is reported as inconclusive: 39.8 µM [inhibitor, single point].
With `COc1ccc2c(Sc3ccccc3)c(C(=O)NCCc3ccc(Cl)cc3)[nH]c2c1` the Potency was inconclusive: 31.6 µM [activator, single point].
In the case of `O=C1CC(=C(c2ccccc2)c2ccccc2)C(=O)N1CCCCN1CCN(c2cccc(Cl)c2)CC1`, the Potency is reported as inconclusive: 39.8 µM [inhibitor, single point].
`O=C(CN1C(=O)COc2ccc(S(=O)(=O)N3CCCC3)cc21)N1CCN(c2ccccc2)CC1` was tested, and the max response, negative = inhibition was inactive: 10.1%.
With `COc1ccc(Cn2nnc(C(=O)Nc3cc(OC)ccc3OC)c2N)cc1` the max response, negative = inhibition was inactive: 4.18%.
Also: nearly all actives have a fitted effect of over 40% in size.
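For max response, negative = inhibition in this document: plate controls were enzyme without inhibitor for no effect and buffer without enzyme for full effect.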
Potency is read from the fitted curve at half-maximal effect; tags tell the direction and shape of the fitted curve.
